# PubChem BioAssay (NCATS)
# Several values for one entry are separate records, joined by “and”; a condition that tells them apart may be missing. Equal entries are not always repeated. Inconclusive means that the source gave no clear call. Such entries were picked first, then a sample of the others. For some assays here: Where the call is inconclusive, the potency comes from a doubtful curve fit. Activity calls are given as the source filed them. Unless noted, the call rests on the fitted dose curve; in most records, active means well fitted curve in the direction sought with a large enough effect; inconclusive means small, poorly fitted or top-dose-only effect, or another doubt; inactive means no such curve, though single readings can be large; an effect the other way counts as inactive or inconclusive.
# Columns and labels:
# [1] = P-glycoprotein substrates identified in KB-8-5-11 adenocarcinoma cell line, qHTS therapeutic library screen (AID 1346987); conditions: activity change, negative = cytotoxicity: at 44.5 µM (top of the series); further: nearly all actives have a fitted effect of over 65% in size; further: potency means the concentration at half of the fitted maximal effect
# How it was run: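 Compounds are pinned in dose-response onto KB-8-5-11 cells (500 cells/well, colchicine-free medium) and left 72 h at 37 degree C. CellTiter-Glo luminescence then yields AC50 values.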
# [2] = tested on: Zika virus NS2B-NS3 protease (unlinked complex); assay: Primary screen GU Rhodamine qHTS for Zika virus inhibitors: Unlinked NS2B-NS3 protease assay (AID 1347159); conditions: Recombinant ZIKV NS2B-NS3 protease, Rhodamine110 substrate fluorescence; activity change, negative = inhibition: at 107 µM (top of the series); further: nearly all actives have a fitted effect of over 60% in size; further: potency means the concentration at half of the fitted maximal effect
# How it was run: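 Enzyme 25 nM in Tris-HCl pH 8.0 + 0.01% Tween 20; compounds up to 114 microM, 15 min RT dark; + Rhod110 substrate 1.5 microM; read t0 and 15 min; delta fluorescence → % inhibition → 4-parameter Hill fit.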
# [3] = biological target: Cytochrome P450 2D6 (Homo sapiens) (UniProt P10635); assay: Cytochrome P450 family 2 subfamily D member 6 (CYP2D6) small molecule antagonists: luciferase biochemical (cell-free) qHTS assay (AID 1645840; active means well fitted curve in the direction sought with a large enough effect in the repeat runs; inconclusive means weak or mixed curves; inactive means no such curve, though single readings can be large; an effect the other way counts as inactive or inconclusive; further: potency means the concentration at half of the fitted maximal effect; nearly all actives have a fitted effect of over 55% in size)
# How it was run: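 P450-Glo CYP2D6 system: proluciferin substrate converted by enzyme to luciferin, read by luminescence proportional to activity. Enzyme-substrate mix with compound 10 min at room temperature, then NADPH regeneration 1 h before detection reagent.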
# [4] = biological target: Cytochrome P450 2C9 (Homo sapiens) (UniProt P11712); assay: Cytochrome P450 family 2 subfamily C member 9 (CYP2C9) small molecule antagonists: luciferase biochemical (cell-free) qHTS assay (AID 1645842; active means well fitted curve in the direction sought with a large enough effect in the repeat runs; inconclusive means weak or mixed curves; inactive means no such curve, though single readings can be large; an effect the other way counts as inactive or inconclusive; further: potency means the concentration at half of the fitted maximal effect; nearly all actives have a fitted effect of over 55% in size)
# How it was run: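 P450-Glo CYP2C9 system: proluciferin substrate with enzyme in mix containing 0.4% BSA, 10 min at room temperature, then NADPH regeneration solution added and incubated 1 h at 37C. Detection reagent stopped reaction; luminescence read after 20 min as RLU.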
# [5] = tested on: Zika virus NS2B-NS3 protease (linked construct); assay: Confirmatory screen NINDS AMC qHTS for Zika virus inhibitors (AID 1347152); further: potency means the concentration at half of the fitted maximal effect; nearly all actives have a fitted effect of over 70% in size
# How it was run: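 Linked NS2B-NS3 protease, 1 nM, in 10 mM Tris-HCl pH 8.0, 0.01% Tween 20; compounds preincubated 15 min at room temperature. Nle-KRR-AMC 10 microM (Km 18.3 µM); 15-min fluorescence change (340/450 nm) fitted to 4-parameter Hill.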
# [6] = ZIKV-mCherry secondary qHTS for Zika virus inhibitors (AID 1347158); further: potency means the concentration at half of the fitted maximal effect
# How it was run: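 Percent infection is the share of Hoechst-identified Vero nuclei with mCherry signal above 450 RFU (3 SD over negative controls). Cells were infected with recombinant ZIKV-mCherry at MOI 1 after compound addition and imaged 48–72 h later.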
# [7] = tested on: Zika virus NS2B-NS3 protease (linked construct); assay: Primary screen NINDS Rhodamine qHTS for Zika virus inhibitors (AID 1347160); further: potency means the concentration at half of the fitted maximal effect; nearly all actives have a fitted effect of over 55% in size
# How it was run: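 Enzyme (25 nM, linked NS2B-NS3) was preincubated 15 min with compound in 10 mM Tris-HCl pH 8.0, 0.01% Tween 20. Rhodamine110 substrate (1.5 microM) was then added and fluorescence read at start and after 15 min.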
# [8] = tested on: Zika virus NS2B-NS3 protease (linked); assay: 384 well plate NINDS AMC confirmatory qHTS for Zika virus inhibitors (AID 1347163); further: potency means the concentration at half of the fitted maximal effect; nearly all actives have a fitted effect of over 50% in size
# How it was run: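 Fluorescence at 355/460 nm was read after 25 minutes of cleavage of 30 microM Ac-VKTGKR-AMC at room temperature, in the dark. Before substrate addition, compounds (up to 1 mM final) sat ~15 minutes with 5, 30 or 60 nM linked protease. Signals were normalized to no-enzyme and no-inhibitor wells.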
# [9] = HepG2 cells viability qHTS for Zika virus inhibitors (AID 1347168)
# How it was run: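 qHTS titration; 24-48 h compound exposure, 37 degrees C/5% CO2; DMEM, 4% FBS; CellTiter Glo ATP luminescence.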
# [10] = Tertiary RLuc qRT-PCR qHTS assay for Zika virus inhibitors (AID 1347169); further: potency means the concentration at half of the fitted maximal effect; nearly all actives have a fitted effect of over 55% in size
# How it was run: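 Vero cells (1,000/well) infected with recombinant ZIKV-RLuc (Cambodian) at MOI 1-2 after compound addition, 48-72 hrs at 37 degrees C. Live-cell Renilla luciferase substrate added; luminescence read after 1-1.5 hrs.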
# [11] = Primary fluorescence-based thiol-reactive (MSTI) qHTS assay for identification of artifact compounds. (AID 1845221);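 further: thiol-reactive compounds lower the probe fluorescence signal; nearly all actives have a fitted effect of over 65% in size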
# How it was run: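 MSTI probe at 4 uM final in 2% DMSO/PBS pH 7.4; compounds, 1 h at room temperature in dark. Fluorescence Ex/Em 525/598 nm, normalised to Acetyl-MSTI and MSTI, fitted to 4-parameter Hill.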
# [12] = qHTS of pediatric cancer cell lines to identify multiple opportunities for drug repurposing: Primary screen for Rh18 cells (AID 1347102); further: nearly all actives have a fitted effect of over 65% in size
# How it was run: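 Viability after 48 h compound treatment at 37C, 500-1,000 cells/well, read as ATP luminescence with CellTiter-Glo. Primary screens used 11-point (MIPE, 0.78 nM-46 µM) or 8-point (NPC, 0.59 nM-46 µM) final concentrations; follow-up screens used 11-point dilutions.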
# [13] = biological target: Protein phosphatase 1D (Homo sapiens) (UniProt O15297); assay: RapidFire Mass Spectrometry qHTS Assay for Modulators of WT P53-Induced Phosphatase 1 (WIP1) (AID 1347424)
# How it was run: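 RapidFire MS readout of dephosphorylated VEPPL-S-QETFS product, with 1 uM isotope-labelled peptide standard. Reaction: 10 nM WIP1, 2 uM phosphopeptide substrate, 5 min, room temperature, after 1 h compound preincubation; stopped with 0.5% formic acid.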
# [14] = Primary qHTS for small molecule stabilizers of the endoplasmic reticulum resident proteome: Secreted ER Calcium Modulated Protein (SERCaMP) assay (AID 1508630); conditions: SH-SY5Y GLuc-SERCaMP (Gaussia luciferase released on ER calcium loss) secretion, thapsigargin, luminescence; activity change, negative = inhibition: at 38.4 µM (top of the series) unless noted; further: potency means the concentration at half of the fitted maximal effect
# How it was run: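 The SH-SY5Y reporter protocol was run at 3 concentrations up to 38.3 uM (primary) or 11 concentrations (follow-up): 16 h compound, 100 nM thapsigargin for 4 h, then extracellular luciferase luminescence.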
# [15] = Primary qHTS for inhibitors of nuclear receptor binding SET domain protein 2 (NSD2) in an RCH-ACV wild type WT cells (2C) (AID 1645877); conditions: activity change, negative = cell killing: at 44.9 µM (top of the series) unless noted; further: potency means the concentration at half of the fitted maximal effect; nearly all actives have a fitted effect of over 70% in size
# [16] = biological target: Glutathione peroxidase 1 (Homo sapiens) (UniProt P07203); assay: Primary qHTS Assay for Inhibitors of Recombinant Selenoprotein Glutathione Peroxidase 1 (GPX1) (AID 1845191); further: potency means the concentration at half of the fitted maximal effect; nearly all actives have a fitted effect of over 65% in size
# How it was run: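 GR-coupled readout: NADPH consumption tracked by fluorescence, ex 340/em 450 nm, at t=0 and after 15 min at RT. Final mix 10 nM GPX1, 1 mM GSH, 0.5 mM CHP, 0.5 mM NADPH, 100 nM GR, 0.01% BSA, following 30 min enzyme–compound preincubation.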
# Tags describe the fitted curve by direction and shape.
# Chain of UniProt P07203 (P07203 whole entry, looked up): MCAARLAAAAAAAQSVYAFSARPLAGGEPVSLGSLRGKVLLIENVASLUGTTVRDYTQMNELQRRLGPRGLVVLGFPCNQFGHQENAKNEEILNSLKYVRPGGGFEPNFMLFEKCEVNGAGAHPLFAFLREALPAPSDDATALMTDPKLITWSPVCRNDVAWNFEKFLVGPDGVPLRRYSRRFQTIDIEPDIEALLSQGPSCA
# Chain of UniProt P10635 (P10635 whole entry, looked up): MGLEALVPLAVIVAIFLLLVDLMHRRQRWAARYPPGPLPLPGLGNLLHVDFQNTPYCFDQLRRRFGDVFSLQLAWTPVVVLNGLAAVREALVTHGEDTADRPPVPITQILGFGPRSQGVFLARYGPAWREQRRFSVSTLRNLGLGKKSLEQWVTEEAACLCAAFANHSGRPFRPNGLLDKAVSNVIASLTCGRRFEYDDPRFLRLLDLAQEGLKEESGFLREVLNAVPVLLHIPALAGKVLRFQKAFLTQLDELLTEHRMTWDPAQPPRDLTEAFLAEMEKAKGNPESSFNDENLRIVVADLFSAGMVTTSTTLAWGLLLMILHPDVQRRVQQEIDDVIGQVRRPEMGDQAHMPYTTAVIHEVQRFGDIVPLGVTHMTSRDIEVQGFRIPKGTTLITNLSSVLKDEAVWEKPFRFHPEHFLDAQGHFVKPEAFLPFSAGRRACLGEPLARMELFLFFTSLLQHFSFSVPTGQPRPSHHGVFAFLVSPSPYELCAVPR
# Chain of UniProt O15297 (O15297 whole entry, looked up): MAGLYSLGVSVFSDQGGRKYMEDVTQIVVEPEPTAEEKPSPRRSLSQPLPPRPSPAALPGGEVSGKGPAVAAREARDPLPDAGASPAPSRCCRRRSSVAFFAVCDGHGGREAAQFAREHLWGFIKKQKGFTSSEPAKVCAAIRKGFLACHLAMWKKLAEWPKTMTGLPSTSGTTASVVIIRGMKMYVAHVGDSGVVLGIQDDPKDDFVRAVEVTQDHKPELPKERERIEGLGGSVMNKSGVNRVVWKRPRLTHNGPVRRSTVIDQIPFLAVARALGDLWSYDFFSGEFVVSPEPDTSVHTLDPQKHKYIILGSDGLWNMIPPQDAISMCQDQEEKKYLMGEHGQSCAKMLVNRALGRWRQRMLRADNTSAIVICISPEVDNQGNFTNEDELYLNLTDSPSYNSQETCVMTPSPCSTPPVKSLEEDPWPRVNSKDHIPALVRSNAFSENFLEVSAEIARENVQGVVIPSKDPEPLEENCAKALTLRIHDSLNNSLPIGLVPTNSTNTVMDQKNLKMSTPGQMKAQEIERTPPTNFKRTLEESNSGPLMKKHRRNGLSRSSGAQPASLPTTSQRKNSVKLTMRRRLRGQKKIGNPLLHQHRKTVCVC
# Chain of UniProt P11712 (P11712 whole entry, looked up): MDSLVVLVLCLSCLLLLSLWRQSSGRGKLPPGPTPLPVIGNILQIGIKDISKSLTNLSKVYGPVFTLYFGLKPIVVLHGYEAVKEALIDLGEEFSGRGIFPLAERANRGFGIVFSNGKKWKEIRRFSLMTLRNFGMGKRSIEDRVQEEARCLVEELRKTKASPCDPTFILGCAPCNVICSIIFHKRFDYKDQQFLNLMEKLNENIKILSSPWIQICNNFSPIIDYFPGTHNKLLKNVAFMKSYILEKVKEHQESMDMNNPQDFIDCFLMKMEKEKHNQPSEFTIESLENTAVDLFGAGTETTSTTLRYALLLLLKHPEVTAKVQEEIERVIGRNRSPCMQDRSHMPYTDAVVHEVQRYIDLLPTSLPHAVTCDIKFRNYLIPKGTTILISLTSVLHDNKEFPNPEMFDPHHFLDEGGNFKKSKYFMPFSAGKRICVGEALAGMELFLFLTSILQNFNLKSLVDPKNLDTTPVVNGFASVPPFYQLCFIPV
structure (smiles),measurement,setting,value
CC(C)c1c(NC(=O)Nc2ccc(Cl)cc2)c(=O)n(-c2ccccc2)n1C,Potency,[1],"inconclusive: 29.1 µM [inhibitor, partial curve, poor fit]"
same,Potency,[2],inactive
same,Potency,[3],active: 12 µM
same,Potency,[4],"inconclusive: 13.5 µM [inhibitor, partial curve]"
O=C(O)CC1CCC(c2ccc(-c3ccc(Nc4ccc(C(F)(F)F)nc4)cn3)cc2)CC1 (stereo not given),Potency,[1],"inconclusive: 16.4 µM [inhibitor, single point]"
same,Potency,[5],"inconclusive: 35 µM [inhibitor, partial curve]"
same,Potency,[6],"inconclusive: 3.55 µM [inhibitor, full curve]"
same,Potency,[2],active: 6.31 µM
same,Potency,[7],active: 10 µM
same,Potency,[8],"inconclusive: 50.1 µM [inhibitor, partial curve, poor fit]"
same,Potency,[9],inactive
same,Potency,[10],active: 16.5 µM
same,Potency,[3],"inconclusive: 12 µM [inhibitor, partial curve, poor fit]"
same,Potency,[11],inactive
CCN1CCN(C(=O)N[C@@H](C(=O)N[C@@H]2C(=O)N3C(C(=O)O)=C(CSc4nnnn4C)CS[C@H]23)c2ccc(O)cc2)C(=O)C1=O,Potency,[1],inactive
same,Potency,[12],inactive
same,Potency,[13],inactive
same,Potency,[14],"inconclusive: 25.1 µM [inhibitor, partial curve, poor fit]"
same,Potency,[15],"inconclusive: 11.8 µM [inhibitor, single point]"
same,Potency,[16],"active: 11.4 µM and inconclusive: 29 µM [inhibitor, single point]"
